# Data reported in PubChem BioAssay AID445 (National Center for Advancing Translational Sciences (NCATS), 2006).
# The campaign covered roughly 110,000 compounds. About 40 (0.04%) were called active. The inconclusive results got no clear call from the source; some entries with a clear call stand among them for comparison. Calls come from the whole dose curve; as a rule, active = well fitted curve in the direction sought with a large enough effect in the signal ratio (not every such curve was filed as active); inconclusive = small, poorly fitted or top-dose-only effect, or a change in a side signal; inactive = flat fitted curve, though single readings scatter; the % refers to the signal ratio. Where the call is inconclusive, the potency comes from a doubtful curve fit.
# Assay: IkB Signaling;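 for IkBa stabilization activation: 0% = basal untreated cells and 100% = reference inhibitor full response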
# Conditions: ABC-DLBCL IkBa-CBG/CBR dual luciferase ratio (green luciferase fused to IkBa over red control in OCI-Ly3 lymphoma cells), 4 h; IkBa stabilization activation: at 57.1 µM (top of the series), scaled: untreated 0%, proteasome inhibitor 100% unless noted
# Method in brief: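 Curves were fitted separately to fusion (green), unfused (red) and ratio luminescence, then classed by r2, magnitude and activity. Cells: OCI-Ly3, 4 h compound plus doxycycline at 37C; 10 uM MG-132 defined full response.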
# Potency is the fitted concentration of half-maximal effect.
Structure (SMILES),IkBa stabilization activation,Potency
COc1ccc2c(c1)[C@]13CCCC[C@@H]1[C@H](C2)NCC3,inactive,
Cc1ccc(C2N(c3cc(C)on3)C(=O)C3CCCN32)cc1 (stereo not drawn),inactive,
O=C(O)c1cc[c]([Hg][Cl])cc1,,"inconclusive: 31.6 µM [rising, partial curve]"
CC1=NN=C(c2ccc(N)cc2)c2cc3c(cc2C1)OCO3,inactive,
CCCOc1ccc(C2SCC(=O)Nc3c2c(C)nn3-c2cccc(C)c2)cc1OC (stereo not drawn),inconclusive: 0.488% [signal inhibitor],
COc1cccc(NC(=O)Cn2cc(C(=O)c3ccccc3)c3ccccc32)c1,inconclusive: 15.5% [signal inhibitor],
CCOC(=O)c1c(N)n(CCN2CCCCC2)c2nc3ccccc3nc12,inactive,
CCN(CC)CCSc1nc2ccccc2c(=O)n1-c1ccc(Cl)cc1,,"inconclusive: 25.1 µM [signal inhibitor, partial curve]"
O=C(O)c1cc2ccccc2oc1=O,inactive,
Cc1cccc(Cn2cccc(C(=O)Nc3ccc4c(c3)OCCO4)c2=O)c1,inconclusive: 6.83% [signal inhibitor],
Cc1cccc(-c2nc(CN3C(=O)CN=C(c4ccccc4)c4ccccc43)c(C)o2)c1,inconclusive: -3.12% [signal inhibitor],
O=C(Oc1ccccc1)N1CCC2(CCCN(Cc3ccccc3)C2)CC1,"inactive: 1.5% [at 11.4 µM, scaled: untreated 0%, proteasome inhibitor 100%]",
Cc1ccc(-n2c(/C=C\c3ccc(F)cc3)nc3ccccc3c2=O)cc1Cl,inactive,
COc1ccc(C(c2ccc(OC)cc2)C(Cl)(Cl)Cl)cc1,,"inconclusive: 20 µM [signal inhibitor, partial curve]"
CC1CCCCN1CC(=O)c1ccc2cc[nH]c2c1 (stereo not drawn),inconclusive: 15.3% [signal inhibitor],
C[C@@H](Cc1cccc(C(F)(F)F)c1)NCCCc1ccccc1,inconclusive: 0.165% [signal inhibitor],
CN1CSC(=S)N(C)C1,inactive,
CC(C)CCn1c(N)c(C(=O)OCC2CCCO2)c2nc3ccccc3nc21 (stereo not drawn),inactive,
Cc1ccc(NC(=O)Cn2cc(C(=O)c3ccccc3)c3ccccc32)cc1,inconclusive: 13.8% [signal inhibitor],
Cc1ccc2nc(NC(=O)c3cccn(Cc4ccc(Cl)cc4)c3=O)sc2c1,inconclusive: 3.26% [signal inhibitor],
Cc1nn(-c2ccccc2)c(Cl)c1C1C(C#N)=C(N)Oc2c1c(=O)oc1ccccc21 (stereo not drawn),,"inconclusive: 31.6 µM [signal inhibitor, partial curve]"
C=CCN1CC[C@]23c4c5ccc(O)c4O[C@@H]2C(=O)CC[C@@]3(O)[C@H]1C5,inactive,

Structure (SMILES),IkBa stabilization activation,Potency
CCn1cnc2c(Nc3cccc(Cl)c3)nc(N[C@@H]3CCCC[C@H]3N)nc21,,"inconclusive: 3.16 µM [signal inhibitor, full curve]"
COc1cc2c(cc1OC)-c1c(OC)c(OC)c(CO)c3c1[C@H](C2)N(C)CC3,"inactive: 0.0499% [at 11.4 µM, scaled: untreated 0%, proteasome inhibitor 100%]",
COc1ccccc1OCCCn1cc(C(=O)c2ccco2)c2ccccc21,inconclusive: 3.16% [signal inhibitor],
COC(=O)c1c(N)n(Cc2ccc(OC)cc2)c2nc3ccccc3nc12,inconclusive: 1.36% [signal inhibitor],
CCCn1c(C)c(C(=O)c2cccc3ccccc23)c2ccccc21,inconclusive: 0.696% [signal inhibitor],
COc1ccc(C[C@@H]2NC[C@H](O)[C@@H]2OC(C)=O)cc1,"inconclusive: -6.37% [signal inhibitor] [at 25.6 µM, scaled: untreated 0%, proteasome inhibitor 100%]",
COc1ccc(NC(=O)c2sc3nc4c(cc3c2N)N2CCC4CC2)cc1OC,inconclusive: 0.46% [signal inhibitor],
CCCCCc1cc(O)cc(O)c1,inactive,
N#CCBr,inactive,
Cc1cccc(CN2CC=C(c3noc(CCC(=O)Nc4ccc(C)c(F)c4)n3)CC2)c1,inconclusive: 3.67% [signal inhibitor],
COCCOC(=O)c1c(N)n(Cc2ccccc2)c2nc3ccccc3nc12,inactive,
COC(=O)c1cc2c(cn1)[nH]c1ccccc12,inactive,
CN(C(=O)Cc1ccccc1)[C@H](CN1CCCC1)c1ccccc1,inactive,
CN1C(=O)N(C)C(=O)C2(Cc3c(nc4ccccn4c3=O)N3CCC(Cc4ccccc4)CC32)C1=O (stereo not drawn),inactive,
COC[C@H]1OC(=O)c2coc3c2[C@@]1(C)C1=C(C3=O)[C@H]2CCC(=O)[C@@]2(C)C[C@H]1OC(C)=O,inconclusive: 18.5% [signal activator],
CC(C)(C)c1cc(O)ccc1O,,"inconclusive: 31.6 µM [rising, partial curve]"
c1ccc(N2CC3(CCNCC3)C2)cc1,"inactive: 0.434% [at 11.4 µM, scaled: untreated 0%, proteasome inhibitor 100%]",
O=C1C[C@H]2OCCC=C3CN4CC[C@@]56c7ccccc7N1[C@@H]5[C@H]2[C@H]3C[C@@H]46,"inactive: 0.0649% [at 11.4 µM, scaled: untreated 0%, proteasome inhibitor 100%]",
COCCCn1c(N)c(C(=O)OCCOC)c2nc3ccccc3nc21,inactive,
N[C@@H](Cc1c[nH]c2ccccc12)c1nnc(SCc2ccc(Cl)cc2)o1,inconclusive: 3.92% [signal inhibitor],
CCOC(=O)N(C)c1ccc(C(O)(C(=O)OCC)C(F)(F)F)cc1 (stereo not drawn),inactive,
